# From article PMC6919601, “Identification of Plasmodium dipeptidyl aminopeptidase allosteric inhibitors by high throughput screening” (PLoS ONE, 2019)
# Out of some 110,000 compounds screened, about 230 (0.21%) showed an effect of 50% or more. The list shows a part of the results.
# Target: DPAP1 (Plasmodium falciparum, UniProt Q8IIJ9)
# Assay: primary screen, percent inhibition; read by cleavage of a fluorogenic dipeptide substrate; higher = more effect of the substance
# Parameters: species or system P. falciparum D10 trophozoite lysates; single well
# 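Note: 30 min substrate incubation versus DMSO and 10 µM JCP410 controls.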
# DPAP1, sequence (Q8IIJ9 whole entry, looked up): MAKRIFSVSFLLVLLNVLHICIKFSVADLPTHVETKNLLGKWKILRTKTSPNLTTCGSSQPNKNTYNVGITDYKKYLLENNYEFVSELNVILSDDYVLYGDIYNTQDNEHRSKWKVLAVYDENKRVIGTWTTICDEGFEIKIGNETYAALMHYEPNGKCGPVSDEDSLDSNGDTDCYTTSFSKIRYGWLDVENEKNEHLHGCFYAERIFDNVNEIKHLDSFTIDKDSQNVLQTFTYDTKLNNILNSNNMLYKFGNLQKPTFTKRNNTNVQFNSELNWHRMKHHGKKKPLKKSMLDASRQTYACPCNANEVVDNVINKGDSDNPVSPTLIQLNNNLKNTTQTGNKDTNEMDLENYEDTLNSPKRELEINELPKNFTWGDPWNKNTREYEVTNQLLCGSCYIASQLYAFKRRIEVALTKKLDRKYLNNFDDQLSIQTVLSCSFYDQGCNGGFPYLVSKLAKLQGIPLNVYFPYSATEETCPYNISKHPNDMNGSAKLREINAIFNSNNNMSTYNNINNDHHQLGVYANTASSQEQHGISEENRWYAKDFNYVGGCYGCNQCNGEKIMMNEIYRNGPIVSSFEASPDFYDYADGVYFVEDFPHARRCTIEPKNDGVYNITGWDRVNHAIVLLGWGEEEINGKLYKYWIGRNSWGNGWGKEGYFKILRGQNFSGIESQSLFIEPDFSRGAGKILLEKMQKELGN
row,Structure (SMILES),% Inhibition @ 10 uM [%]
1,CCOC(=O)c1cccc(NC(=O)CCc2ccccc2)c1,-2.67
2,Cc1ccc(S(=O)(=O)N2CCCC(C(=O)NC3CCCCC3)C2)cc1 (stereo not drawn),0.635
3,CCOc1ccccc1C(=O)Nc1sc2c(c1C(N)=O)CCCC2,-1.44
4,O=C(O)/C=C/C(=O)Nc1cc([N+](=O)[O-])ccc1F,-0.0648
5,COc1ccc(CCNC(=O)CSc2nc3nncc-3c(O)n2-c2ccccc2OC)cc1OC,-1.99
6,Cc1noc(NS(=O)(=O)c2ccc(NC(=O)C3CC3)cc2)c1C,-3.24
7,O=S(=O)(NC1CCCCC1N1CCC(O)CC1)c1ccc(Cl)cc1 (stereo not drawn),-0.671
8,Cc1ccc(-c2noc(CSc3nnc(-c4ccncc4)n3-c3ccc(C)cc3)n2)cc1,2.89
9,Cn1c(=O)c(Sc2ccccc2C(=O)O)c(O)c2ccccc21,4.05
10,Oc1ccc(C2CC(c3ccccc3O)=NN2)cc1 (stereo not drawn),3.79
11,COc1ccc(C(=C(Cl)Cl)c2ccc(OC)cc2)cc1,8.97
12,CS(=O)(=O)N(CC(=O)NC1CC2CCC1C2)c1ccccc1Cl (stereo not drawn),-2.74
13,CCOC(=O)c1cnc2nc(Cc3ccccc3)nn2c1O,-0.671
14,CCCN1CCC(N2CCN(Cc3ccccc3)CC2)CC1,-1.81
15,CC1CCCC(NCc2c(C(=O)O)n(Cc3ccccc3F)c3ccccc23)C1C (stereo not drawn),1.93
16,COc1ccccc1NC1=NS(=O)(=O)c2ccccc21,1.13
17,COC(=O)c1c(N)c(C#N)c(C)n1-c1ccccc1,-2.44
18,COc1ccccc1N1CCN(S(=O)(=O)c2ccc(SC)cc2)CC1,-10.7
19,Cn1c(=O)n(C)c2cc(/C=C3/SC(=O)N(Cc4ccccc4F)C3=O)ccc21,-1.22
20,Cc1ccc(C(=O)O)cc1S(=O)(=O)Nc1ccccc1Cl,0.189
21,Nc1ccccc1S(=O)(=O)Nc1cccc2cccnc12,-3.48
22,CC(C)(C)C(/C=C\c1ccc(Cl)cc1Cl)n1nnnc1C1(N2CCOCC2)CCCCC1 (stereo not drawn),-2.66
23,CCn1c2ccccc2c2cc(CNCCc3ccc(Cl)cc3Cl)ccc21,-5.16
24,Cc1ccc2onc(CC(=O)Nc3cc(-c4cccc(Cl)c4)no3)c2c1,1.23
25,CC1CC(C)CN(C(=O)C2c3ccccc3C(=O)N(C)C2c2cn(C)c3ccccc23)C1 (stereo not drawn),-0.668
26,CCN(Cc1ccccc1)S(=O)(=O)c1csc(C(N)=O)c1,3.28

row,Structure (SMILES),% Inhibition @ 10 uM [%]
1,COc1ccc(-c2csc(/C(C#N)=C\C=C\c3ccccc3)n2)cc1,2.13
2,COc1cc(C2CC(=O)N=C(N)N2)ccc1OC(F)F (stereo not drawn),2.01
3,COc1cc(CNCc2cccc(C(F)(F)F)c2)cc(OC)c1,-4.7
4,Clc1ccc(N2CCN(Cc3cc(Br)cs3)CC2)cc1,0.847
5,Cn1cccc1CNCCSc1nnnn1C,0.00706
6,CCO/C(O)=C/C1=Nc2nonc2NC(=O)C1,2.33
7,CC(C)(C)N1CN2C(=O)N3CN(C(C)(C)C)CN4C(=O)N(C1)C2C34 (stereo not drawn),1.42
8,CC(C)CC(C(=O)N1CCN(C)CC1)N1Cc2ccccc2C1=O (stereo not drawn),8.57
9,O=C(c1ccccc1)n1nc(-c2cccnc2)nc1NCc1ccccc1,3.81
10,CN(CC(=O)NC1CCCc2ccccc21)c1nnc(N2CCCC2=O)s1 (stereo not drawn),-7.54
11,Cc1ccsc1C(=O)N[C@@H](CC1CCCCC1)C(=O)NCC#N,2.67
12,Cc1cccc(-n2nnc(C(=O)NCc3ccc4c(c3)OCO4)c2N)c1,4.47
13,CCCOc1ccc(C2C(C#N)=C(N)Oc3[nH]nc(C(C)(C)C)c32)cc1OC (stereo not drawn),-2.07
14,CC1=C(C(=O)NC2CCCC2)C2(CCCCCC2)OC1=O,-1.89
15,CCOC(=O)C1=CN(C(C)C)C=C(C(=O)OCC)C1c1ccccc1OC,1.86
16,CC(NC(=O)/C=C/c1ccco1)c1ccccc1 (stereo not drawn),5.77
17,O=c1sc2ccccc2c(N2CCOCC2)c1[N+](=O)[O-],5.01
18,CC(=O)N1CCN(C2=NC(=O)/C(=C/c3ccc(-c4cc(Cl)ccc4Cl)o3)S2)CC1,3.85
19,CCC(C)NC(=O)c1sc2nc(-c3ccccc3)cn2c1C (stereo not drawn),-0.138
20,CNCCOC(c1ccccc1)c1ccccc1,0.989
21,COc1ccc(S(=O)(=O)N(C)CC(=O)N2CCN(c3cccc(Cl)c3)CC2)cc1,-2.6
22,O=C(O)c1ccc(CS(=O)(=O)c2c(Cl)cccc2Cl)o1,-3.78
23,COc1cc(C=O)ccc1Oc1nc(N2CCCCC2)nc(N2CCCCC2)n1,4.86
24,Cc1ccc(-c2csc(N)n2)cc1,20.7
25,COc1ccc(Cc2nc3ccccc3n2CC(C)C)cc1,1.12
26,CCc1nonc1NC(=O)c1ccc(C)cc1,0.00706

row,Structure (SMILES),% Inhibition @ 10 uM [%]
1,CCCCCCCOc1ccc(C2(C)NC(=O)NC2=O)cc1 (stereo not drawn),3.96
2,O=C(NCCc1c[nH]c2ccccc12)c1cnc(N2CCCC2)nc1,0.44
3,NC(=O)c1cc(S(=O)(=O)NCCC2=CCCCC2)cs1,2.75
4,N#CCNC(=O)[C@H](CC1CCCCC1)NC(=O)c1cccc(O)c1,-5.21
5,CCN1CCN(c2oc(/C=C/c3ccc(F)cc3)nc2C#N)CC1,-0.808
6,O=C(C1CC1)N1CCN(c2ncccn2)CC1,2.32
7,COc1ccccc1C1c2[nH]c3ccccc3c2CCN1C(C)=O (stereo not drawn),-2.21
8,CN(C)CCN(C(=O)c1ccc(Cl)s1)c1nc2ccc(F)cc2s1,-6.46
9,O=C(Nc1ccc(Cc2ccncc2)cc1)C1CCC(N2C(=O)C3C4C=CC(C5CC45)C3C2=O)CC1 (stereo not drawn),-4.02
10,COc1ccccc1/C=C1\SC(N2CC(C)OC(C)C2)=NC1=O (stereo not drawn),9.19
11,CCOc1cc(/C=C2\SC(=O)N(CC)C2=O)ccc1OCC(=O)O,2.44
12,COc1cc2c(cc1OC)C(c1ccccc1Br)CC(=O)N2 (stereo not drawn),-10.8
13,COc1cccc(C2C3=C(O)CCCC3=NC(C)=C2C(=O)Nc2ccccc2OC)c1 (stereo not drawn),-0.941
14,COc1cc(C(c2c(O)n[nH]c2C)c2c(O)n[nH]c2C)cc(Br)c1O,-7.1
15,CCCS(=O)(=O)N1CCCC(C(=O)NCCN(C)Cc2ccccc2)C1 (stereo not drawn),4.81
16,CC1CCC2(CC1)SCC(=O)N2c1cccc(C(F)(F)F)c1 (stereo not drawn),-3.45
17,COc1ccc(C(=O)CSc2nnnn2Cc2ccccc2)cc1OC,1.65
18,Cc1ccccc1C(=O)Nc1cccc(NC(=O)COc2ccccc2Cl)c1,2.69
19,CCOc1ccc(C(=O)Nc2cccc(C)c2C)cc1,-0.865
20,c1nc(NCCN2CCOCC2)c2c3c(sc2n1)CCCC3,-4.51
21,Cc1ccc(C(=O)Nc2ccc(C)c(C)c2)s1,3.97
22,C=CCN1C(=S)N[C@@H]2CS(=O)(=O)C[C@@H]21,-0.85
23,CCOC(=O)C1CCCN(Cc2ccc(C(C)C)cc2)C1 (stereo not drawn),-0.0404
24,COc1ccccc1-c1cc(C(=O)NCCN2CCOCC2)c2ccccc2n1,-1.95
25,COc1ccc(CC(=O)NCCSc2c[nH]c3ccccc23)cc1OC,1.23
26,O=C(CN1C(=O)c2cccc3cccc(c23)C1=O)N1CCOCC1,5.64

row,Structure (SMILES),% Inhibition @ 10 uM [%]
1,O=C(O)CCC(=O)Nc1cccc2ccccc12,-3.65
2,COc1cccc(CN(C(=O)c2cccc(OC)c2)C2CCS(=O)(=O)C2)c1 (stereo not drawn),-6.85
3,O=C(COc1ccc(Cl)cc1)N(Cc1ccccc1)c1ccccn1,3.62
4,Cc1sc(NC(=O)C2CCCCC2C(=O)O)c(C(N)=O)c1-c1ccccc1 (stereo not drawn),18.3
5,COC(=O)c1cc(S(=O)(=O)NCCCN(C)Cc2ccccc2)c[nH]1,1.73
6,Cc1cc(-c2ccccc2)c2c3c(c(-c4ccccc4)n2n1)c(=O)n(C)c(=O)n3C,3.15
7,CC1=Nc2ncnn2C(c2cccc(O)c2)/C1=C(\O)OC(C)C (stereo not drawn),-1.17
8,Cc1cccc(C(=O)Nc2ccc(CN3CCOCC3)cc2)c1,0.709
9,N#CCCn1c2ccccc2c2ccccc21,-0.546
10,COc1cc(C(=O)NCCOc2ccccc2F)cc(OC)c1OC,0.503
11,OC(CCCN1CCCCC1)(c1ccccc1)c1ccccc1,2.09
12,Cc1ccc(S(=O)(=O)N(CC(=O)N2CCN(c3ccccc3F)CC2)Cc2ccc(F)cc2)cc1,-0.545
13,CCCCCCc1ccc(-c2ncc(-c3ccc(Br)cc3)cn2)cc1,1.35
14,CN(Cc1cn2c3ccccc3n(C)c2n1)C12CC3CC(CC(C3)C1)C2,-1.38
15,CCCCNS(=O)(=O)c1ccc(S(=O)(=O)N2CCN(CCC#N)CC2)cc1,-5.51
16,Cc1ccc(CNc2cnn(C34CC5CC(CC(C5)C3C(=O)O)C4)c(=O)c2Cl)cc1 (stereo not drawn),8.73
17,Cc1ccc(N2C(=O)C3C4C=CC(CNC(=O)OCc5ccccc5)(O4)C3C2=O)cc1 (stereo not drawn),-5.47
18,CCOC(=O)C1CCN(S(=O)(=O)c2ccc(F)cc2)CC1,-0.833
19,CCC(=O)N1CCN(c2cc(N3CCOCC3)c(F)cc2[N+](=O)[O-])CC1,-6.25
20,Cc1ccccc1Cn1c(SCc2ccc(C(=O)NCC3CCCO3)cc2)nc2ccncc21 (stereo not drawn),-8.96
21,CCOc1ccc(NC(=O)CN(c2cccc(Br)c2)S(C)(=O)=O)cc1,0.431
22,O=C(Nc1ccc2c(c1)OCO2)c1cc2n(n1)C(C(F)(F)F)CC(c1ccccc1)N2 (stereo not drawn),4.67
23,CCN(CCN(C)C)Cc1ccoc1,0.265
24,CCc1cccc(C)c1NS(=O)(=O)Cc1ccccc1,1.43
